Results published in the supplement of paper PMC9446081.
Out of some 39,000 compounds screened, about 220 (0.56%) showed activity. The list shows a part of the results.

Tested on: Escherichia coli K-12 BW25113
Experiment: relative growth (OD600 normalised to plate interquartile mean) (fraction); higher = less growth inhibition, active = 0.2 or less
Conditions: 50 µM; LB; incubation time: overnight (16-24 h)
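Note: static incubation at 37 °C against the wild-type strain, values averaged over two biological replicates.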

Q: How did the relative growth turn out when COc1ccc(S(=O)(=O)N(C)C[C@H]2OCCCC[C@H](C)Oc3ccc(NC(=O)Nc4ccccc4)cc3C(=O)N([C@@H](C)CO)C[C@@H]2C)cc1 was run?
A: inactive: 1.03

Q: With C[C@H]1CN([C@@H](C)CO)C(=O)c2cc(C#Cc3cccnc3)cnc2O[C@H]1CN(C)Cc1ccc(F)cc1 as the compound, how does the relative growth read?
A: inactive: 1

Q: For Cc1noc(C)c1S(=O)(=O)Nc1ccc2c(c1)CC(=O)N([C@H](C)CO)C[C@H](C)[C@H](CN(C)Cc1ccc(Oc3ccccc3)cc1)O2, which relative growth is on record?
A: inactive: 1.01

Q: Which relative growth does the source give for C[C@@H]1CCCCO[C@@H](CN(C)S(=O)(=O)c2ccc(Cl)cc2)[C@H](C)CN([C@@H](C)CO)C(=O)c2cc(NS(=O)(=O)c3ccc(Cl)cc3)ccc2O1 here?
A: inactive: 1.02

Q: How did the relative growth turn out when C[C@H]1CCCCO[C@H](CN(C)Cc2ccncc2)[C@@H](C)CN([C@@H](C)CO)C(=O)c2cc(NS(C)(=O)=O)ccc2O1 was run?
A: inactive: 1.02

Q: Which relative growth does the source give for COc1ccc(S(=O)(=O)Nc2ccc3c(c2)C(=O)N([C@@H](C)CO)C[C@H](C)[C@@H](CN(C)C(=O)Nc2ccc(C(F)(F)F)cc2)OCCCC[C@H](C)O3)cc1 here?
A: inactive: 1.05

Q: With C[C@@H]1CN([C@@H](C)CO)C(=O)c2cccc(NS(C)(=O)=O)c2O[C@H]1CN(C)Cc1ccc(C(F)(F)F)cc1 as the compound, how does the relative growth read?
A: inactive: 0.979

Q: With CC(=O)NC(=O)N[C@H]1CSC[C@@H]1OC(C)=O as the compound, how does the relative growth read?
A: inactive: 1

Q: With C[C@@H]1CN([C@H](C)CO)C(=O)c2cc(NS(=O)(=O)c3cn(C)cn3)ccc2O[C@@H](C)CCCCO[C@@H]1CN(C)C(=O)CCCN(C)C as the compound, how does the relative growth read?
A: inactive: 1.05

Q: For C[C@H]1CN([C@@H](C)CO)C(=O)CCCn2nncc2CO[C@@H]1CN(C)C(=O)Nc1ccc2c(c1)OCCO2, which relative growth is on record?
A: inactive: 0.906

Q: With O=C(C[C@H]1CC[C@@H](NC(=O)CN2CCOCC2)[C@@H](CO)O1)NC1CCC1 as the compound, how does the relative growth read?
A: inactive: 1.01

Q: How did the relative growth turn out when C[C@@H]1CN([C@@H](C)CO)C(=O)c2cc(NC(=O)Nc3cccc4ccccc34)ccc2O[C@@H](C)CCCCO[C@@H]1CN(C)S(=O)(=O)c1cccs1 was run?
A: inactive: 1.01

Q: How did the relative growth turn out when C[C@@H]1CCCCO[C@@H](CN(C)CC2CCCCC2)[C@H](C)CN([C@H](C)CO)C(=O)c2cc(NC(=O)Nc3ccc(C(F)(F)F)cc3)ccc2O1 was run?
A: inactive: 0.961

Q: For OCc1cn(-c2ccccc2)nn1, which relative growth is on record?
A: inactive: 0.971

Q: With COc1c2ccoc2c(OC)c2oc(=O)ccc12 as the compound, how does the relative growth read?
A: inactive: 0.804

Q: How did the relative growth turn out when COCC#Cc1cnc2c(c1)C(=O)N([C@@H](C)CO)C[C@H](C)[C@@H](CN(C)C(=O)CCN1CCCCC1)O2 was run?
A: inactive: 0.978

Q: Which relative growth does the source give for COc1ccc(-c2cnc3c(c2)C(=O)N([C@@H](C)CO)C[C@H](C)[C@@H](CN(C)C(=O)Cc2ccncc2)O3)cc1 here?
A: inactive: 1.02

Q: For C[C@H]1CN([C@@H](C)CO)C(=O)c2cccc(NC(=O)Nc3ccc4c(c3)OCO4)c2O[C@@H]1CN(C)Cc1ccc(Cl)c(Cl)c1, which relative growth is on record?
A: inactive: 1

Q: For C[C@@H]1CN([C@@H](C)CO)C(=O)c2ccccc2-c2ccccc2CO[C@H]1CN(C)C(=O)N[C@H](C)c1ccccc1, which relative growth is on record?
A: inactive: 0.991

Q: With O=C1NC[C@@H]2CN(C(=O)c3cnccn3)C[C@@H]12 as the compound, how does the relative growth read?
A: inactive: 1.01

Q: For COc1ccc(NC(=O)Nc2ccc3c(c2)CC(=O)N([C@H](C)CO)C[C@H](C)[C@H](CN(C)C(=O)Nc2ccc(C(F)(F)F)cc2)O3)cc1, which relative growth is on record?
A: inactive: 0.991

Q: Which relative growth does the source give for COC(=O)[C@@H](N)c1cccc(Cl)c1 here?
A: inactive: 0.896

Q: How did the relative growth turn out when C[C@@H]1CN([C@@H](C)CO)C(=O)c2cccc(NC(=O)Nc3ccc(C(F)(F)F)cc3)c2O[C@H]1CN(C)C(=O)Nc1ccc(F)cc1 was run?
A: inactive: 0.846

Q: Which relative growth does the source give for C[C@@H]1CN([C@@H](C)CO)C(=O)c2cccc(NS(=O)(=O)c3cn(C)cn3)c2O[C@H]1CN(C)Cc1ccccc1 here?
A: inactive: 0.993

Q: Which relative growth does the source give for COc1ccc2c(=O)ccoc2c1 here?
A: inactive: 0.851

Q: For COc1ccc(-c2oc3c(CC=C(C)C)c(O[C@@H]4O[C@H](CO)[C@@H](O)[C@H](O)[C@H]4O)cc(O)c3c(=O)c2O[C@@H]2O[C@@H](C)[C@H](O)[C@@H](O)[C@H]2O)cc1, which relative growth is on record?
A: inactive: 1.13

Q: How did the relative growth turn out when C[C@@H]1CCCCO[C@@H](CN(C)S(=O)(=O)c2ccc(Cl)cc2)[C@@H](C)CN([C@H](C)CO)C(=O)c2cc(NC(=O)Cc3ccccc3)ccc2O1 was run?
A: inactive: 0.991

Q: With CC(C)NC(=O)Nc1ccc2c(c1)C(=O)N([C@@H](C)CO)C[C@H](C)[C@@H](CN(C)CC1CCCCC1)OCCCC[C@H](C)O2 as the compound, how does the relative growth read?
A: inactive: 0.971

Q: How did the relative growth turn out when CCCc1cc(=O)nc(SCC(N)=O)[nH]1 was run?
A: inactive: 1

Q: For COc1ccc(S(=O)(=O)Nc2ccc3c(c2)C(=O)N([C@@H](C)CO)C[C@@H](C)[C@H](CN(C)S(=O)(=O)c2cccs2)O3)cc1, which relative growth is on record?
A: inactive: 0.987

Q: For C[C@@H]1CN([C@@H](C)CO)C(=O)c2cc(C3=CCCC3)cnc2O[C@@H]1CN(C)C(=O)Nc1ccc(C(F)(F)F)cc1, which relative growth is on record?
A: inactive: 0.969

Q: For CC1CCC2C(C)C(O)OC3OC4(C)CCC1C32OO4 (configuration not stated), which relative growth is on record?
A: inactive: 0.637

Q: Which relative growth does the source give for C[C@@H]1CN([C@@H](C)CO)C(=O)Cc2cc(NC(=O)Nc3ccccc3)ccc2O[C@H]1CN(C)C(=O)Nc1cccc2ccccc12 here?
A: inactive: 0.97

Q: C[C@@H]1CN([C@H](C)CO)C(=O)c2cc(NC(=O)c3ccncc3)ccc2O[C@H]1CN(C)Cc1ccc2c(c1)OCO2 was tested. Which relative growth did it give?
A: inactive: 1.01

Q: For C[C@H]1CN([C@@H](C)CO)C(=O)CCCn2nncc2CO[C@H]1CN(C)C(=O)Nc1cccc2ccccc12, which relative growth is on record?
A: inactive: 0.99

Q: Which relative growth does the source give for C[C@H]1CN([C@@H](C)CO)C(=O)Cc2cc(NC(=O)Cc3cn(C)c4ccccc34)ccc2O[C@H]1CN(C)Cc1ccc(Oc2ccccc2)cc1 here?
A: inactive: 1.05

Q: How did the relative growth turn out when CN(C)C(=O)N1C[C@@H]2[C@@H](C1)C(=O)N(C)C21CCN(S(C)(=O)=O)CC1 was run?
A: inactive: 0.987

Q: C[C@@H]1CCCCO[C@H](CN(C)S(=O)(=O)c2cccs2)[C@@H](C)CN([C@H](C)CO)C(=O)c2cc(NS(C)(=O)=O)ccc2O1 was tested. Which relative growth did it give?
A: inactive: 0.98

Q: CCC[C@@H](O)C#Cc1cnc2c(c1)C(=O)N([C@H](C)CO)C[C@H](C)[C@H](CN(C)S(=O)(=O)c1cccs1)O2 was tested. Which relative growth did it give?
A: inactive: 0.976

Q: For C[C@@H]1CCCCO[C@@H](CN(C)C(=O)Nc2cccc3ccccc23)[C@H](C)CN([C@H](C)CO)C(=O)c2cc(NS(=O)(=O)c3cccs3)ccc2O1, which relative growth is on record?
A: inactive: 1.04

Q: How did the relative growth turn out when O=C1C[C@H](c2ccc(-c3ccc(C(F)(F)F)cc3)cc2)C2(C(=O)c3ccccc3C2=O)[C@H](c2ccccc2)C1 was run?
A: inactive: 1.02

Q: How did the relative growth turn out when COc1ccc(S(=O)(=O)N(C)C[C@H]2Oc3ccc(NC(=O)Nc4c(C)noc4C)cc3CC(=O)N([C@@H](C)CO)C[C@@H]2C)cc1 was run?
A: inactive: 0.997

Q: For Cc1noc(C)c1NC(=O)N(C)C[C@H]1OCCCC[C@H](C)Oc2ccc(NC(=O)Nc3ccccc3)cc2C(=O)N([C@H](C)CO)C[C@@H]1C, which relative growth is on record?
A: inactive: 1

Q: How did the relative growth turn out when COCCNC(=O)C[C@H]1CC[C@@H]2[C@@H](COc3ccc(NC(=O)Nc4cccc(F)c4)cc3C(=O)N2C)O1 was run?
A: inactive: 0.922

Q: Which relative growth does the source give for CN(C)C(=O)C[C@@H]1CC[C@H](NC(=O)C2CCOCC2)[C@H](CO)O1 here?
A: inactive: 0.988

Q: Which relative growth does the source give for Cc1ccc(S(=O)(=O)N(C)C[C@@H]2Oc3c(NS(=O)(=O)c4ccccc4)cccc3C(=O)N([C@@H](C)CO)C[C@@H]2C)cc1 here?
A: inactive: 1.03

Q: With C[C@H]1CN([C@@H](C)CO)C(=O)Cc2cc(NC(=O)CCN3CCOCC3)ccc2O[C@@H]1CN(C)Cc1ccccc1 as the compound, how does the relative growth read?
A: inactive: 1.01

Q: With COc1ccc(cc1)CN1C[C@]2(CN(C2)S(=O)(=O)c2cn(cn2)C)c2c([nH]c3cc(ccc23)OC)[C@H]1CO as the compound, how does the relative growth read?
A: inactive: 1

Q: For Cc1nccn1-c1ccc(CN)cc1, which relative growth is on record?
A: inactive: 0.991

Q: How did the relative growth turn out when C=CC(C1=CC(=O)C=CC1=O)c1ccccc1 (configuration not stated) was run?
A: inactive: 1.02

Q: With COC(=O)CC1C2(C)CC34OC5(C)OC6(C7C(=C(O)C(C)C)C(=O)OC(c8ccoc8)C7(C)C(OC(C)=O)C(OC(C)=O)C6(O5)C13C)C(OC(C)=O)C4(O)C2OC(=O)C(C)C (configuration not stated) as the compound, how does the relative growth read?
A: inactive: 0.876

Q: How did the relative growth turn out when O=C(O)c1ccc(O)c(O)c1 was run?
A: inactive: 0.98

Q: How did the relative growth turn out when CC1(C)OC2CC3C4CC(F)C5=CC(=O)C=CC5(C)C4C(O)CC3(C)C2(C(=O)CO)O1 (configuration not stated) was run?
A: inactive: 1.07

Q: With C=CCC[C@@H](Cc1ccc(F)cc1)C(=O)OC[C@H](Cc1c[nH]c2ccccc12)NC(=O)[C@@H](CC=C)CC(=O)N[C@@H](CO)Cc1ccccc1 as the compound, how does the relative growth read?
A: inactive: 1.01

Q: With CCS(=O)(=O)Nc1ccc2c(c1)C(=O)N(C)[C@H]1CC[C@H](CC(=O)Nc3ccccc3C)O[C@@H]1CO2 as the compound, how does the relative growth read?
A: inactive: 1.01

Q: Which relative growth does the source give for O=C(CN1CCOCC1)N[C@@H]1CC[C@@H](CCn2cc(C3CCCC3)nn2)O[C@@H]1CO here?
A: inactive: 1.02

Q: COC(=O)c1c(CC[C@@H](CO)NC(=O)N[C@H](Cn2cc(C3(O)CCCCC3)nn2)C(C)C)oc(C(C)=O)c1C(=O)OC was tested. Which relative growth did it give?
A: inactive: 1

Q: Which relative growth does the source give for COc1ccc2c3c([nH]c2c1)[C@@H](CO)N(C[C@]13CCN(CC1)C(=O)c1cccnc1)C(=O)c1cccnc1 here?
A: inactive: 1

Q: Which relative growth does the source give for C[C@H](CO)N1C[C@H](C)[C@@H](CN(C)C(=O)Nc2cccc3ccccc23)Oc2ccc(NC(=O)Nc3ccccc3)cc2C1=O here?
A: inactive: 1.01

Q: Which relative growth does the source give for CO[C@@H](C(=O)N(C)C[C@@H]1OCc2ccccc2-c2c(n(C)c3ccccc23)C(=O)N([C@@H](C)CO)C[C@@H]1C)c1ccccc1 here?
A: inactive: 1.01

Q: With Cc1nnc(SCC2=C(C(=O)O)N3C(=O)[C@@H](NC(=O)Cn4cnnn4)[C@H]3SC2)s1 as the compound, how does the relative growth read?
A: active: 0.0386

Q: CC(C)NC(=O)[C@@H](C)n1ncn2cccc2c1=O was tested. Which relative growth did it give?
A: inactive: 0.801
